# PubChem BioAssay AID1345083 (National Center for Advancing Translational Sciences (NCATS), 2018)
# Several values for one entry are separate records, joined by “and”; a condition that tells them apart may be missing. Equal values may be shown once. The whole screen tested about 94,000 compounds, of which about 6,200 (6.6%) were called active. The shares of active, inactive and inconclusive entries below differ from those in the screen. Calls come from the whole dose curve; as a rule, active = well fitted inhibition curve with a large enough effect; inconclusive = small, poorly fitted or top-dose-only effect; inactive = flat fitted curve, though single readings scatter. A potency beside an inconclusive call is a rough fit, not a confirmed value.
# Assay: Cytotoxic Profiling in HEK 293 Cell Line of Diverse Libraries Using Quantitative High-Throughput Screening; note: nearly all actives have a fitted effect of over 60% in size
# Conditions: HEK 293 viability, ATP luminescence (CellTiter-Glo), 48-72 h; series mostly up to 115 µM
# How it was run: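 Cells seeded first (HEK 293, 250 cells/well), then compound added by pintool. Incubation ran 48 or 72 hr at 37 degree Celsius. CellTiter-Glo was added and luminescence imaged after 10 min at room temperature.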
# Potency is the fitted concentration of half-maximal effect; tags give direction and shape of the fitted curve.
row,SMILES,Potency
1,Cc1cn2nc(C(=O)N3CCCCC3)cc2c(N(C)Cc2ccccc2)n1,"inconclusive: 50.1 µM [inhibitor, partial curve, poor fit]"
2,CCOc1ccccc1NC(=O)Cn1c(N(C)Cc2ccccc2)nc(C)cc1=O,active: 35.5 µM
3,CC1(CNCc2ccccc2)COc2ccc(C(=O)Nc3cccc(Cl)c3)cc2N1 (stereo not drawn),"inconclusive: 79.4 µM [inhibitor, partial curve, poor fit]"
4,CCOc1ccccc1N1CCN(C(=O)c2ccc3c(c2)N(C)C2CCCCN2C3=O)CC1 (stereo not drawn),"inconclusive: 35.5 µM [inhibitor, full curve]"
5,OCc1ccc(CN2Cc3[nH]cnc3C[C@H]2c2nc(-c3ccc4ccccc4c3)no2)o1,active: 79.4 µM
6,COc1ccc(CCC(=O)N2CCCN(C)c3ccccc32)cc1,"inconclusive: 89.1 µM [inhibitor, single point]"
7,O=C(c1nccc2ccccc12)N1CCc2c(nc(-c3ccc(F)cc3)[nH]c2=O)C1,"inconclusive: 39.8 µM [inhibitor, partial curve, poor fit]"
8,COc1ccc(-c2cc(C[C@H]3CNCC[C@H]3CC(=O)N(C)Cc3ccccc3)no2)cc1,active: 31.6 µM
9,O=C(C1CCCCCC1)N1CCC(n2cc(C3CCCCC3)nn2)CC1,active: 89.1 µM
10,O=C(Nc1cccc(-c2ccc(F)cc2)c1)C1CCCN1C(=O)c1ccncc1 (stereo not drawn),"inconclusive: 79.4 µM [inhibitor, single point]"
11,COc1ccc(C(=O)N2CC(Cn3c(C)cnc3-c3ccncc3)C2)cn1,inactive
12,Cc1nc2c(c(NCCc3cnn(-c4ccccc4)c3)n1)CCNCC2,"inconclusive: 20 µM [inhibitor, full curve, poor fit]"
13,O=C(NCc1ccccc1Cl)C1CCCN(c2ccnc3ccnn23)C1 (stereo not drawn),"inconclusive: 63.1 µM [inhibitor, partial curve, poor fit]"
14,CCn1ccc(C(=O)N2CCC3(CC2)c2[nH]c4ccccc4c2CCN3C)n1,"inconclusive: 89.1 µM [inhibitor, partial curve, poor fit]"
15,Cc1nn(-c2ccc(F)cc2)c(Oc2ccccc2F)c1CCC(=O)N(C)C(C)C,active: 35.5 µM
16,Cc1ccsc1C(=O)N1CCC[C@H](n2c(=O)n(CC3CC3)c3cccnc32)C1,active: 25.1 µM
17,CC1CCN(C(=O)C[C@@H]2c3nc(NC(=O)c4ccc(F)cc4)sc3C[C@@H]3[C@](C)(CO)[C@H](O)CC[C@]32C)CC1,"inconclusive: 79.4 µM [inhibitor, partial curve, poor fit]"
18,COc1ccccc1CNC[C@H]1Cn2cc(-c3ccccc3OC)nc2CO1,active: 112 µM
19,COC(=O)[C@@H]1Cc2c([nH]c3ccccc23)[C@H]2C[C@@H](NCCO)C[C@@H](c3cccc(OC)c3)N21,active: 28.2 µM
20,CCCC(=O)N1CCCC(c2noc(COc3ccccc3)n2)C1 (stereo not drawn),"inconclusive: 17.8 µM [inhibitor, full curve, poor fit]"
21,Cc1ccc(C(=O)N2CCC3(CC2)CC(N2CCN(c4ccccc4)CC2)CCO3)cn1 (stereo not drawn),"inconclusive: 35.5 µM [inhibitor, partial curve, poor fit]"

row,SMILES,Potency
1,CCOc1cc(=O)n2c(c1C(=O)Nc1cccc(SC)c1)CCCC2,inactive
2,CC(C)Oc1ccc(CNC(=O)C2Cn3cccc3C(=O)N2Cc2cccnc2)cc1 (stereo not drawn),"inconclusive: 100 µM [inhibitor, single point]"
3,CN(CCCN1CCOCC1)Cc1nc(-c2ccc(Cl)cc2)no1,inactive
4,O=C(c1csc2nc(-c3ccc(C(F)(F)F)cc3)cn12)N1CCN2CCCC2C1 (stereo not drawn),"inconclusive: 25.1 µM [inhibitor, partial curve, poor fit]"
5,CN(C)C(=O)N1CCc2nc(-c3ccc(Cl)cc3)nc(-c3ccccc3)c2C1,"inconclusive: 89.1 µM [inhibitor, single point]"
6,Cc1noc(C)c1CN1C[C@H]2[C@H](C1)[S+](=O)([O-])C(C)(C)C(=O)N2Cc1ccccc1F,inactive
7,CCCN(C)c1nccnc1OC1CCN(C(=O)c2cccc(OC)c2OC)C1 (stereo not drawn),"inconclusive: 50.1 µM [inhibitor, partial curve, poor fit]"
8,COC(=O)[C@@H]1Cc2c([nH]c3ccccc23)[C@H]2C[C@H](NCc3cccs3)C[C@@H](c3ccc(F)cc3)N21,active: 28.2 µM
9,O=C(CCc1ccccc1)N1CCC2(CC1)CC(N(C(=O)c1ccccc1)C1CC1)CCO2 (stereo not drawn),"inconclusive: 56.2 µM [inhibitor, partial curve, poor fit]"
10,CC1(c2ccccc2)N(Cc2ccccc2C#N)C(=O)OC12CCN(Cc1ccccc1F)CC2 (stereo not drawn),"inconclusive: 28.2 µM [inhibitor, full curve, poor fit]"
11,C[C@H](C(=O)NCCN1CCOCC1)C1CC[C@@]2(C)Cc3sc(-c4ccccc4)nc3[C@@H](C)[C@@H]2[C@H]1O (stereo partly drawn),"inconclusive: 56.2 µM [inhibitor, partial curve, poor fit]"
12,CC1=C[C@@H](CNC2CCOCC2)[C@H](C(C)C)C[C@H]1Cc1nc2ccccc2[nH]1,"inconclusive: 100 µM [inhibitor, partial curve, poor fit]"
13,O=C(Nc1ccc(Oc2ccccc2)cc1)O[C@@H]1CO[C@H]2[C@@H]1OC[C@@H]2NS(=O)(=O)c1ccc(Cl)cc1,active: 35.5 µM
14,COc1ccc(F)cc1-c1cccc(C(=O)NCCNC(=O)Nc2ccc(Cl)cc2)c1,"inconclusive: 50.1 µM [inhibitor, partial curve, poor fit]"
15,Cc1ccc(C(=O)N2CCC(n3cc(-c4nc(-c5ccccc5)no4)nn3)CC2)cc1,"inconclusive: 50.1 µM [inhibitor, partial curve, poor fit]"
16,CCOc1ccccc1NC(=O)N1CCc2nc(OCCOC)ccc2C1,"inconclusive: 89.1 µM [inhibitor, single point]"
17,Cc1cc(C#N)c(-c2ccccc2C(=O)N(C(C)C)C(C)C)nc1C,inactive
18,O=[S+]([O-])(c1ccccc1)N1CC2(COCCN(Cc3ccc(F)cc3F)C2)C1,"inconclusive: 100 µM [inhibitor, partial curve, poor fit]"
19,Cc1ccc(-n2nc(C)c([C@@H]3C=C[C@@H](NC(=O)NC4CCCCC4)C3)c2C)cc1Cl,"inconclusive: 39.8 µM [inhibitor, partial curve, poor fit]"
20,c1ccc(CCCCn2ccnc2-c2cc3n(n2)CCCNC3)cc1,inactive
21,CN1C[C@H](C(=O)N2CCN(c3ccccn3)CC2)C[C@H]1c1cccc(C(F)(F)F)c1,active: 89.1 µM

row,SMILES,Potency
1,O=C(NCc1ccccc1)[C@@H]1Cc2nc[nH]c2CN1Cc1cccc(OC(F)(F)F)c1,active: 70.8 µM
2,COc1ccccc1Nc1ccnc(N2CCC(N[S+](=O)([O-])c3ccccc3)CC2)n1,active: 31.6 µM
3,CCOc1cccc(CN2CCCC23Cc2ccccc2CNC3=O)c1 (stereo not drawn),"active: 79.4 µM and inconclusive: 56.2 µM [inhibitor, partial curve, poor fit]"
4,CCOc1cc(=O)n2c(c1C(=O)Nc1ccc(C)cc1C)CCCC2,inactive
5,Cc1nc(=O)[nH]c(C)c1CCC(=O)N[C@H](c1ccccn1)C1CC(O)C1 (stereo partly drawn),inactive
6,Clc1cc(NCc2ccccn2)n2nccc2n1,"inconclusive: 5.62 µM [inhibitor, full curve, poor fit]"
7,CC1(C)[C@H](Cc2cc(CC3CCCCC3)on2)C[C@@H]1NS(C)(=O)=O,active: 70.8 µM
8,COCc1cc(NCCSCc2ccccc2C)ncn1,"inconclusive: 25.1 µM [inhibitor, full curve]"
9,Cc1nn(C)c(C)c1C(C)NC(=O)c1ccc(CC2CCN(C(=O)C3CC3)CC2)cc1 (stereo not drawn),"inconclusive: 20 µM [inhibitor, partial curve, poor fit]"
10,COc1ccc2[nH]c(C[C@@H]3C[C@@H](C(C)C)[C@H](CNC4CCN(C)CC4)C=C3C)nc2n1,"inconclusive: 35.5 µM [inhibitor, partial curve, poor fit]"
11,COC[C@@H]1CN(S(=O)(=O)c2cccc(C)c2)C[C@H]1C(N)=O,"inconclusive: 89.1 µM [inhibitor, single point]"
12,CN(Cc1ccnn1C)C1CCCc2ccccc21 (stereo not drawn),"inconclusive: 126 µM [inhibitor, single point]"
13,COc1cccc(CN2CCNc3cc(Nc4cccnc4)ncc3C2)c1,"inconclusive: 39.8 µM [inhibitor, partial curve, poor fit]"
14,COc1ccc2c(c1)OCC(CNC(=O)c1scc3c1OCCO3)C2 (stereo not drawn),"inconclusive: 79.4 µM [inhibitor, partial curve, poor fit]"
15,CCc1nc2c(c(-c3ccc(Cl)cc3)n1)CCN(Cc1cccc3ccccc13)CC2,active: 44.7 µM
16,COc1cc(-c2cc3c(nc2-c2ccccc2)nc(C(=O)NC2CCN(C)CC2)n3C)ccn1,"inconclusive: 39.8 µM [inhibitor, full curve, poor fit]"
17,COCCN1C(=O)CC[C@]2(C(=O)N3CCCCCC3)CCCC[C@@H]12,inactive
18,CSCCNC(=O)C1CN(c2cccc(Cl)c2)C(=O)N1 (stereo not drawn),inactive
19,CCOC(=O)[C@@H]1CN(C(=O)c2cccc3c2OC(F)(F)O3)[C@H]2c3cccc(F)c3O[C@@H]12,"inconclusive: 50.1 µM [inhibitor, partial curve, poor fit]"
20,Cc1cccc(OC[C@H]2C[C@@H](NCc3nccn3C)[C@H](O)[C@@H]2O)n1,inactive
21,Cc1noc([C@H]2CCN(Cc3ccsc3)C[C@H]2NC(=O)C2CC2)n1,inactive
